Laboratory results as given in PubChem BioAssay AID504832 (National Center for Advancing Translational Sciences (NCATS), 2011).
In all, about 310,000 compounds went through this assay and about 18,000 (5.8%) were called active. The inconclusive results got no clear call from the source; some entries with a clear call stand among them for comparison. Calls follow the shape of the dose curve; as a rule, active = well fitted inhibition curve with a large enough effect; inconclusive = small, poorly fitted or top-dose-only effect, or another doubt; inactive = no such curve, though single readings can be large or run the other way. No potency is given beside an inconclusive call; the fits are too rough.

Test: Primary qHTS for delayed death inhibitors of the malarial parasite plastid, 48 hour incubation
Conditions: P. falciparum luciferase growth in erythrocytes; series mostly up to 28.7 µM; activity change, negative = inhibition: at the top concentration
Procedure, shortened: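 Growth was read as firefly luciferase luminescence after a 48 h, 37 C, 5% CO2 exposure of compounds to reporter-bearing P. falciparum cultures (0.1% parasitemia, 2% hematocrit final) in Albumax-supplemented RPMI 1640.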
% is scaled to controls: 0 for no effect and ±100 for the full control effect; potency is read from the fitted curve at half-maximal effect; tags tell the direction and shape of the fitted curve.

Row | Compound | Potency | activity change, negative = inhibition
1 | Cc1c(C#N)c2ccccc2n1CC(=O)N1CCc2ccccc2C1 | inconclusive [inhibitor, single point] | 
2 | CCN=C1NN=C(c2cc(C)n(Cc3ccco3)c2C)CS1 |  | inactive: -45.4%
3 | CCN(CC)S(=O)(=O)c1ccc(N(C)CCc2ccc(OC)c(OC)c2)nc1 | inconclusive [inhibitor, partial curve] | 
4 | CCc1nnc(NC(=O)c2cc(S(=O)(=O)N3CCOCC3)ccc2N2CCCCC2)s1 |  | inactive: -16.4%
5 | NC(N)=N/N=C/c1ccc(N2CCOCC2)cc1 | inconclusive [inhibitor, partial curve] | 
6 | O=C(NCc1ccccc1)NC1(C(=O)N2CCN(c3ncccn3)CC2)CCCCC1 | inconclusive [inhibitor, partial curve, poor fit] | 
7 | CC(C)CCNC(=O)C(c1ccncc1)N(CC1CCCO1)C(=O)Cn1nnc(-c2ccc(F)cc2)n1 (centres undefined) | inconclusive [inhibitor, partial curve] | 
8 | COc1nc(OC)nc(N2CCC(C(=O)Nc3cccc4ccccc34)CC2)n1 |  | inactive: 6.06%
9 | O=C(Nc1ccccc1)Nc1ccc2ccccc2n1 |  | inactive: 0%
10 | Cc1c(C(=O)NC2CCCc3ccccc32)oc2ccc(S(=O)(=O)N3CCOCC3)cc12 (centres undefined) | inconclusive [inhibitor, partial curve, poor fit] | 
11 | CCN(CC)CCCN1CC(O)=C(c2nc3ccccc3s2)C1=N | inconclusive [inhibitor, single point] | 
12 | Cn1c(N2CCN(c3ccccn3)CC2)nc2c1c(=O)n(Cc1ccc(Cl)cc1)c(=O)n2C | active: 11.7 µM | 
13 | Cc1ccc(CN2C(=O)c3ccccc3NC23CCN(Cc2ccccc2)CC3)cc1 | inconclusive [inhibitor, partial curve, poor fit] | 
14 | Cc1ccc(NC(=S)Nc2cc(-c3ccccc3)[nH]n2)cc1Cl | inconclusive [inhibitor, single point] | 
15 | COc1cc(/C=C/c2ccc3c(Br)cc(Br)c(O)c3n2)ccc1O | active: 9.28 µM | 
16 | CCOC(=O)c1ccc(NC(=S)N2CCCC(C)C2)cc1 (centres undefined) |  | inactive: -3.32%
17 | C=CCc1cccc(C=Nc2cccn3cc(-c4ccccc4)nc23)c1O |  | inactive: 92.1%
18 | CCOC(=O)C1=C(O)/C(=C\c2cc(C)n(-c3ccccc3F)c2C)N=C1C | inconclusive [inhibitor, full curve] | 
19 | O=c1cc(N2CCc3ccccc32)[nH]c(=O)n1-c1ccc(Br)cc1 |  | inactive: 41%
20 | CCc1ccccc1NC(=O)/C(=C/c1ccccc1)c1ccccc1 | active: 5.22 µM | 
21 | CC1CCC2C(=O)N(c3cccc(OS(=O)(=O)c4ccccc4)c3)C(=O)C2C1 (centres undefined) | inconclusive [inhibitor, single point] | 
22 | CN(Cc1ccccc1)C(=O)c1ccc(NC(=O)Cc2cccc(NC(=O)C3CCCN(C(=O)CCc4ccccc4)C3)c2)cc1 (centres undefined) | active: 3.7 µM | 
23 | O=C(NCCCN1CCCC1=O)c1cccc(NS(=O)(=O)c2ccccc2)c1 |  | inactive: 2.54%

Row | Compound | Potency | activity change, negative = inhibition
24 | COc1ccc(N2CCN(c3oc(COc4ccc(Cl)cc4Cl)nc3C#N)CC2)cc1 |  | inactive: 15.7%
25 | CCCCC1(C)OC(=O)C(=Cc2ccc(-c3ccc(Cl)c(C(=O)O)c3)o2)C(=O)O1 (centres undefined) |  | inactive: 0.782%
26 | Cc1ccc(C2(c3noc(CN(C)Cc4ccccn4)n3)CCCC2)cc1 | inconclusive [inhibitor, partial curve, poor fit] | 
27 | CN(Cc1cn(C)nc1-c1ccc(Oc2ccccc2)cc1)Cc1cnc2ccccn12 | inconclusive [inhibitor, partial curve] | 
28 | O=C1NCCCc2c1oc1ccc(O)cc21 | inconclusive [inhibitor, full curve, poor fit] | 
29 | Cc1ccc(N(CCC#N)C(=O)COC(=O)C2CCN(S(=O)(=O)c3ccc(C)c(C)c3)CC2)cc1 | inconclusive [inhibitor, single point] | 
30 | OC(COc1ccc(OCC(O)CN2CCCCCC2)cc1)CN1CCCCCC1 (centres undefined) | inconclusive [inhibitor, partial curve, poor fit] | 
31 | CC/C(=N\NC(=O)c1c(C)nc2ccccn12)c1ccc(Cl)cc1 | inconclusive [inhibitor, single point] | 
32 | CC(C)CNC(=O)COCc1cc(-c2ccc3c(c2)OCO3)on1 |  | inactive: 32%
33 | COc1ccc2cc3cc(C(=O)NCCCN4CCOCC4)oc3nc2c1 | inconclusive [inhibitor, partial curve] | 
34 | CCN(CC)S(=O)(=O)c1ccc(C(=O)Nc2ccc(Cc3ccncc3)cc2)cc1 | inconclusive [inhibitor, single point] | 
35 | COc1ccc(/C=N/Nc2nc(-c3ccc(C)cc3)c(NC(C)=O)s2)cc1 | active: 2.33 µM | 
36 | COc1ccc(NS(=O)(=O)c2cccc(C(=O)N3CCN(c4ccccc4O)CC3)c2)cc1 | inconclusive [inhibitor, partial curve, poor fit] | 
37 | O=C(CCCN1C(=O)c2cccc3cccc(c23)C1=O)N1CCN(c2ccc(F)cc2)CC1 | inconclusive [inhibitor, partial curve] | 
38 | COc1ccccc1C1c2[nH]c3ccccc3c2CCN1Cc1cnc(C)s1 (centres undefined) | inconclusive [inhibitor, partial curve] | 
39 | CCc1nc(SCC(=O)Nc2cccc(C(F)(F)F)c2)c2c(=O)n(C)c(=O)n(C)c2n1 | active: 9.28 µM | 
40 | CCOC(=O)N1CCN(C(=O)Cn2ccc3c(OC)cccc3c2=O)CC1 |  | inactive: -2.52%
41 | O=C(NCCc1ccccc1)c1ccc(Cn2c(SCc3cccc(F)c3)nc3cccnc32)cc1 | active: 9.28 µM | 
42 | O=c1oc(-c2ccc([N+](=O)[O-])cc2)nc2ccc(O)cc12 |  | inactive: 21% [at 5.75 µM]
43 | COc1ccc(CCC(=O)Nc2ccc(S(=O)(=O)N3CCOCC3)cc2)cc1 |  | inactive: -17.6%
44 | Cc1cc(C)c(C)c(S(=O)(=O)NCCN2CCOCC2)c1C |  | inactive: -3.13%
45 | O=c1c2ccccc2nnn1CSc1nc2ccccc2c(=O)n1CCCO |  | inactive: -20.8%
46 | O=C(CCNC(=O)c1ccccc1Cl)Nc1cccc(S(=O)(=O)N2CCCCC2)c1 | inconclusive [inhibitor, partial curve] | 

Row | Compound | Potency | activity change, negative = inhibition
47 | Nc1c(Cl)cc(C2=NCCn3nc4cc(C(F)(F)F)ccc4c32)cc1Cl | inconclusive [inhibitor, single point] | 
48 | CC(C)(C)c1cc(CP(=O)(c2ccccc2)c2ccccc2)cc(C(C)(C)C)c1O | inconclusive [inhibitor, single point] | 
49 | COc1cc2c(cc1OC)C(C)N(S(=O)(=O)c1ccc(Cl)nc1)CC2 (centres undefined) | inconclusive [inhibitor, single point] | 
50 | CCCCn1c(-c2cccc(F)c2)nc2c1c(=O)[nH]c(=O)n2CC(C)C | inconclusive [inhibitor, partial curve, poor fit] | 
51 | COc1cccc(C(=O)N2CCN(C3CCC(c4ccccc4)CC3)CC2)c1OC (centres undefined) | inconclusive [inhibitor, partial curve] | 
52 | COC(=O)c1c([N+](=O)[O-])c(OC)c(OC)c(OC)c1[N+](=O)[O-] |  | inactive: 23.8%
53 | Cc1ccc(-c2cc(C(F)F)n3ncc(C(=O)Nc4cn(C)nc4C)c3n2)cc1 | inconclusive [inhibitor, single point] | 
54 | CC(OC(=O)c1ccc(F)cc1)C(=O)Nc1nc(-c2cccc([N+](=O)[O-])c2)cs1 (centres undefined) |  | inactive: 18.2%
55 | CC(C)C(c1nnnn1Cc1ccco1)N1CCN(c2nc3ccccc3s2)CC1 (centres undefined) | inconclusive [inhibitor, single point] | 
56 | COC(=O)C1=C(C)N(c2ccc(C(=O)OC)cc2)C(=O)C1 | inconclusive [inhibitor, single point] | 
57 | Cc1ccc2cc(C#N)c(NCCNC(=S)NCCCN3CCOCC3)nc2c1 | inconclusive [inhibitor, single point] | 
58 | CCOC(=O)C1=C(Nc2ccc(Cl)cc2)OCC1=O | active: 11.7 µM | 
59 | O=S(=O)(NCc1nnc2c(C(F)(F)F)cc(Cl)cn12)c1ccccc1 |  | inactive: 15.9%
60 | CC1CC(C)CN(C(=O)Cc2c(C(=O)O)[nH]c3ccc(Cl)cc23)C1 (centres undefined) |  | inactive: 2.72%
61 | CCOc1ccc(N(CC(=O)NCCSCc2ccco2)S(=O)(=O)c2ccc(F)cc2)cc1 | inconclusive [inhibitor, partial curve, poor fit] | 
62 | CC(C)[C@H](NC(=O)[C@@H]1CSC2c3ccccc3C(=O)N21)C(=O)N1CCCCC1 (some centres undefined) | inconclusive [inhibitor, single point] | 
63 | O=[N+]([O-])c1cccc(NP(=O)(Oc2ccccc2)Oc2ccccc2)c1 | inconclusive [inhibitor, single point] | 
64 | CCOc1ccccc1CNC(=O)CCCn1ncn2c(cc3occc32)c1=O | inconclusive [inhibitor, partial curve] | 
65 | C/C=C(\C)C(=O)NCCN1C2=NC[C@H](Cc3ccc(O)cc3)N2C[C@H]1Cc1ccc(O)cc1 | inconclusive [inhibitor, full curve, poor fit] | 
66 | CCSc1nnc(NC(=O)CSc2ncccn2)s1 | inconclusive [inhibitor, partial curve, poor fit] | 
67 | Cc1ccc(C(=O)N[C@H](C(=O)Nc2ccc(N3CCOCC3)cc2)C(C)C)cc1 | inconclusive [inhibitor, single point] | 
68 | CC(=O)c1cccc(Nc2nc(-c3sc(C)nc3C)cs2)c1 |  | inactive: -20%
69 | CCOc1ccc(C(=O)Nc2cccc(-c3ccc(N4CCOCC4)nn3)c2)cc1OCC |  | inactive: -13.5%
